# PubChem BioAssay (Tox21)
# Values joined by “and” are separate entries in the source; they are usually repeats but may differ in a detail not shown here. Equal values may be shown once. The inconclusive results got no clear call from the source; some entries with a clear call stand among them for comparison. Potencies beside an inconclusive call are fits to weak or partial responses and may not hold up. Active and inactive are the calls of the source. The call rests on the fitted dose curve; in most records, active means well fitted cell-killing curve with a large enough effect in the repeat runs; inconclusive means weak or mixed curves; inactive means flat fitted curve, though single readings scatter.
# Assay: qHTS assay to identify small molecule antagonists of the estrogen receptor beta (ER-beta) signaling pathway - cell viability counter screen (AID 1259382); further: nearly all actives have a fitted effect of over 55% in size
# Details: ER-beta-UAS-bla HEK293T viability, CellTiter-Glo luminescence, 16 h; series mostly up to 92.4 µM; activity change, negative = cytotoxicity: at the top concentration
# Excerpt: U.S. Tox21 Program National Center for Advancing Translational Sciences [NCATS] NIH Chemical Genomics Center [NCGC] U.S. Environmental Protection Agency [EPA] National Institutes of Environmental Health Sciences [NIEHS] National Toxicology Program [NTP] U.S. Food and Drug Administration [FDA] Tox21 Assay Overview: Estrogen receptor (ER), a nuclear hormone receptor, plays an important role in development, metabolic homeostasis and reproduction. Two subtypes of ER, ER-alpha and ER-beta, have similar expression patterns with some uniqueness in both types. Endocrine disrupting chemicals (EDCs) and their interactions with steroid hormone receptors like ER causes disruption of normal endocrine function. To identify the compounds that inhibit ER signaling, an ER-beta-UAS-bla GripTite cell line (Life Technologies, Madison, WI, USA) containing a beta-lactamase reporter gene under the control of an UAS response element was used to screen Tox21 10K compound library. The cytotoxicity of the Tox21 compound library against the ER-beta-bla cell line was tested in parallel by measuring the cell viability using CellTiter-Glo assay in the same wells.
# Tox21 Assay Protocol Summary: ER-beta-UAS-bla HEK293T cells were dispensed at 2,000 cells/4 uL of assay medium containing 2% charcoal stripped FBS per well into black wall/clear-bottom 1536-well plates using a Multidrop Combi (ThermoFisher Scientific, Waltham, MA) dispenser. After the assay plates were incubated at a 37C and 5% CO2 for 6 hr, 23 nL of compounds dissolved in DMSO, positive controls or DMSO only was transferred to the assay plate by a Pintool station (Kalypsys, San Diego, CA), followed by addition of 1 uL (1nM as final concentration) of 17-beta-estradiol (E2) in assay medium using a Flying Reagent Dispenser (FRD, Aurora Discovery, San Diego, CA). The plates were incubated at 37C and 5% CO2 for 16 hr. Then 1 uL of LiveBLAzer B/G FRET substrate was added using a Flying Reagent Dispenser, the plates were incubated at room temperature for 2 hours, and fluorescence intensity was measured by an Envision plate reader (PerkinElmer, Shelton, CT). For cell viability readout that measures cytotoxicity, 4 uL/well of CellTiter-Glo reagent was added into the assay plates using a FRD. After 30 min incubation at room temperature, the luminescence intensity in the plates was measured using a ViewLux (PerkinElmer) plate reader.
# On the % scale 0 is the no-effect control and ±100 the full control effect; potency means the concentration at half of the fitted maximal effect; tags describe the fitted curve by direction and shape.
SMILES,"activity change, negative = cytotoxicity",Potency
CCOC(=O)c1ccc(C)cc1,inactive: 3.93%,
Cc1nc2ccc(CN(C)c3ccc(C(=O)N[C@@H](CCC(=O)O)C(=O)O)s3)cc2c(=O)[nH]1,,"inconclusive: 0.133 µM [cytotoxic, full curve, poor fit]"
COc1cc(C=O)ccc1OC(=O)C(C)C,inactive: -3.6%,
COc1ccc(N)c(OC)c1,,"inconclusive: 54.5 µM [cytotoxic, partial curve]"
OCC1CC2CC1C1CCC(CO)C21 (stereo not given),,"inconclusive: 48.6 µM [cytotoxic, partial curve]"
CCCCCCCCCC(C)C=O (stereo not given),,"inconclusive: 68.6 µM [cytotoxic, single point]"
CC(C)=NNC(N)=S,,"inconclusive: 48.6 µM [cytotoxic, partial curve]"
COc1ccc2nc(NC(=O)Nc3ccccc3)sc2c1,,"inconclusive: 9.44 µM [cytotoxic, partial curve]"
CSc1ccc(O)cc1C,,"inconclusive: 68.6 µM [cytotoxic, single point]"
OCc1ccc(Cl)cc1Cl,,inactive
CNCCCCOc1ccccc1Cc1ccccc1,,"inconclusive: 15 µM [cytotoxic, partial curve]"
Nc1ncn([C@H]2C[C@H](O)[C@@H](CO)O2)c(=O)n1,inactive: -0.359% [at 42.5 µM],
CC(=O)c1ccc2c(c1)N(CCCN1CCC(CCO)CC1)c1ccccc1S2,,"inconclusive: 23.7 µM [cytotoxic, partial curve]"
CNC(=S)NC,,"inconclusive: 8.63 µM [cytotoxic, full curve]"
O=S(=O)(O)c1cc(Cl)c(Cl)cc1Cl,,"inconclusive: 43.3 µM [cytotoxic, partial curve]"
CN(C)C(=O)C(CCN1CCC(O)(c2ccc(Cl)cc2)CC1)(c1ccccc1)c1ccccc1,,"inconclusive: 18.8 µM [cytotoxic, partial curve]"
Cc1nc(-c2ccccn2)ncc1C(=O)Nn1cc(C)c2cc(F)ccc21,,"inconclusive: 68.6 µM [cytotoxic, partial curve]"
OCc1cc(C(O)CNCCCCCCOCCCCc2ccccc2)ccc1O (stereo not given),,"inconclusive: 13.3 µM [cytotoxic, partial curve]"
C=C(C)C(=O)Nc1ccc(Cl)c(Cl)c1,,"inconclusive: 19.5 µM [cytotoxic, partial curve, poor fit]"
CCOC(=O)CC(=O)C(=O)OCC,,"inconclusive: 8.63 µM [cytotoxic, full curve]"

SMILES,"activity change, negative = cytotoxicity",Potency
CCCC[P+](CCCC)(CCCC)CCCC,,"inconclusive: 48.6 µM [cytotoxic, partial curve, poor fit]"
Oc1ccc(Nc2ccccc2)cc1,,"inconclusive: 17.2 µM [cytotoxic, partial curve]"
CCCCCOc1ccc(C2SC(=O)NC2=O)cc1OCC (stereo not given),,inconclusive: 29.8 µM [cytotoxic]
Nc1c(Br)cc([N+](=O)[O-])cc1Br,,"inconclusive: 68.6 µM [cytotoxic, partial curve, poor fit]"
C=CC(=O)OCCOc1ccccc1,,"inconclusive: 54.4 µM [cytotoxic, partial curve, poor fit]"
CCCCC1C(=O)N(c2ccccc2)N(c2ccccc2)C1=O,,"inactive and inconclusive: 68.6 µM [cytotoxic, partial curve, poor fit]"
CN(C)CCOC1=Cc2ccccc2Sc2ccc(Cl)cc21,,"inconclusive: 26.6 µM [cytotoxic, partial curve]"
COc1ccnc2c1CCCCC2S(=O)c1nc2ccccc2[nH]1 (stereo not given),inactive: -15.4% [at 42.5 µM],
O=C(O)C1=NN(c2ccc(S(=O)(=O)O)cc2)C(=O)C1,,inactive
CCc1cc(C2=C(C(=O)O)N(c3ccccc3C(F)(F)F)S(=O)(=O)c3ccccc32)cc2c1OCO2,,"inconclusive: 17 µM [cytotoxic, full curve]"
CCCC(=O)OCC(COC(=O)CCC)OC(=O)CCC,inactive: 10.4%,
CCCCCCCCOCCCN,,"inconclusive: 27.3 µM [cytotoxic, partial curve]"
O=C(O)c1c(O)c(-c2ccccc2)nc2ccccc12,,inconclusive: 23.7 µM [cytotoxic]
OCCOCCN1CCN(C2=Nc3ccccc3Sc3ccccc32)CC1,,"inconclusive: 15 µM [cytotoxic, partial curve]"
CC(C)NC[C@@H](O)COc1cccc2ccccc12,,inconclusive: 33.5 µM [cytotoxic]
O=C(O)c1c2ccccc2cc2ccccc12,inactive: 1.72%,
CN(C)CCC(c1ccc(Cl)cc1)c1ccccn1 (stereo not given),,"inconclusive: 54.6 µM [cytotoxic, partial curve] and inconclusive: 54.5 µM [cytotoxic, partial curve]"
Nc1ccc(Cl)c([N+](=O)[O-])c1,,"inconclusive: 10.9 µM [cytotoxic, full curve, poor fit]"
O=c1[nH]c2ccc(S(=O)CCN3CCC(Cc4ccc(F)cc4)CC3)cc2o1 (stereo not given),inactive: -4.95%,
C=CCOC(=O)CCCCCC,inactive: 3.58%,
